Test results published in paper PMC4336329 (PLoS ONE, 2015).
Out of some 310,000 compounds screened, about 14,000 (4.5%) showed an effect of 50% or more. Effects have a minus sign here. The list shows a part of the results. Where a SMILES comes first, the peptide text is derived from it. The star is where a group is joined. Boc = CC(C)(C)OC(=O)*

target: human ether-à-go-go-related gene (hERG) potassium channel (human, UniProt Q12809); assay: primary screen, population patch clamp on CHO cells stably expressing hERG
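Further: peak tail current of the secondary pulse compared with the same well before compound.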

Chain of human ether-à-go-go-related gene (hERG) potassium channel (Q12809 whole entry, looked up): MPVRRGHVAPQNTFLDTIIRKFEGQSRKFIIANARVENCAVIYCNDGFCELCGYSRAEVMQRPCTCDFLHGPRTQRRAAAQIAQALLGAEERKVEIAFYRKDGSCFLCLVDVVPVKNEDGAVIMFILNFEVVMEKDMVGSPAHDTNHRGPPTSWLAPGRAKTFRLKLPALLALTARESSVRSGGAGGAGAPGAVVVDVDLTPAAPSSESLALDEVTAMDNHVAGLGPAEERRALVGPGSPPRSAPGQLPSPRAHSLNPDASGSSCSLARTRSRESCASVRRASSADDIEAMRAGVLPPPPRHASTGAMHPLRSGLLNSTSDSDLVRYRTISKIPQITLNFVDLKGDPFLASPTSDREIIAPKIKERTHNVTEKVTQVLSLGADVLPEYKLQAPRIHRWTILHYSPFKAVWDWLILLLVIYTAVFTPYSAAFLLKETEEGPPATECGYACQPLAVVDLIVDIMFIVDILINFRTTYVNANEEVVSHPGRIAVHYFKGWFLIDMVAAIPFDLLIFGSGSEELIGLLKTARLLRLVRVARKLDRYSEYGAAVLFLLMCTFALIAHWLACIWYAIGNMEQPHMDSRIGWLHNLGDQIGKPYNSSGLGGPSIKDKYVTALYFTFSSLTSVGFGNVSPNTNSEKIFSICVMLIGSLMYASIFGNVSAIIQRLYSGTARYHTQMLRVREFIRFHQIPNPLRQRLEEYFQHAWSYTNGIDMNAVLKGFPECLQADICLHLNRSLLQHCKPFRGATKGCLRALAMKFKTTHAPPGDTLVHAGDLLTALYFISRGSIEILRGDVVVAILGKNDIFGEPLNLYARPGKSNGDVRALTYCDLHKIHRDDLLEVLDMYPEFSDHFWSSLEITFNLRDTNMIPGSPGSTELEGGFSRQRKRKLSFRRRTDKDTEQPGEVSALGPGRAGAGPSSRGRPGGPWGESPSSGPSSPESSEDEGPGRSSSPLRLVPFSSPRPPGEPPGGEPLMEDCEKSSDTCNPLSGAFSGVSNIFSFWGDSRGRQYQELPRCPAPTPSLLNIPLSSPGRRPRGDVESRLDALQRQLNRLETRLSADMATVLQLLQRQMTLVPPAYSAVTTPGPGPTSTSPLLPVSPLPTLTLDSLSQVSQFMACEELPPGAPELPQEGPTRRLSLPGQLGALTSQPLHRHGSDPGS

Row | SMILES | hERG current change (%, negative = inhibition) at 10uM
1 | CCSc1nnc([C@H](Cc2c[nH]c3ccccc23)NC(=O)OC(C)(C)C)o1 | -21.5%
2 | Cc1cccc(C(=O)Nc2sc(C)c(-c3ccccc3)c2C#N)c1 | 10.9%
3 | COc1c(OC(C)=O)ccc(/C=C/c2ccc3cccc(OC)c3n2)c1[N+](=O)[O-] | 6.77%
4 | Cc1cccc(C)c1NC(=O)c1nc(S(=O)(=O)Cc2ccccc2)ncc1Cl | -1.03%
5 | COc1cc(SC)ccc1C(=O)Nc1nccs1 | -17.3%
6 | Cc1ccc(C)c(NC(=O)CCN2CCN(C)CC2)c1 | 11.1%
7 | Cc1nn(CC(=O)OCCOc2ccc(Br)cc2)c(C)c1[N+](=O)[O-] | -14.5%
8 | c1ccc(Cc2nc3ccccc3[nH]2)cc1 | -6.39%
9 | O=c1[nH]nc(-c2cccs2)c2ccccc12 | 6.15%
10 | CCCCOc1ccc(/C=C/C(=O)OCC(=O)NC2CCS(=O)(=O)C2)cc1OCC (stereo not drawn) | -8.83%
11 | CN(C)S(=O)(=O)c1cccc(C(=O)OCC(=O)NCc2ccccc2)c1 | -21.4%
12 | COc1ccc(S(=O)(=O)N2CCOCC2)cc1NC(=O)c1cccc(-n2cccc2)c1 | -41.4%
13 | CN(Cc1cn(C)nc1-c1cccc(Cl)c1)Cc1nccn1C | -19.5%
14 | CN(C(=O)c1ccc(OC2CCN(CCc3ccccc3)CC2)cc1)C1CCOC1 (stereo not drawn) | -25.3%
15 | CC1CCC/C(=N\NC(=S)NCc2ccccc2)C1 (stereo not drawn) | -14.4%
16 | COc1ccc(S(=O)(=O)Cc2ccc(C(=O)N3CCN(C(=O)c4ccco4)CC3)o2)cc1 | -26.5%
17 | Cc1ccc(NC(=S)N(CCCN2CCOCC2)Cc2ccco2)cc1C | -31.9%
18 | CCc1ccc(CNC(=O)CCCn2nc(C)n3ccnc3c2=O)cc1 | -11.3%
19 | O=c1c2ccccc2nc(SCc2nnc(-c3ccccc3)o2)n1-c1ccccc1 | -7.61%
20 | CCOC(=O)CCc1nc2ccccc2[nH]1 | 12.2%
21 | Cl.NCCCCC(=O)O | 6.26%
22 | C=CCN1C(=O)c2ccc(C(=O)N3CCC(C(N)=O)CC3)cc2C1=O | 16.8%

Row | SMILES | hERG current change (%, negative = inhibition) at 10uM
23 | Cc1ccc2oc(=O)c3cnn(CC(=O)N(Cc4ccco4)C4CCCCC4)c3c2c1 | -9.94%
24 | CCOC(=O)c1ccccc1NC(=O)COC(=O)CSC(C)C(=O)Nc1cc(C)on1 (stereo not drawn) | 14.8%
25 | Cn1nccc1C(=O)N/N=C/c1ccccc1[N+](=O)[O-] | 11.6%
26 | O=C(c1cc(COc2ccc3ncccc3c2)on1)N1CCCC(O)C1 (stereo not drawn) | 14.4%
27 | Cn1nnnc1SCc1cn2cccnc2n1 | 4.29%
28 | COC(=O)c1cc(=O)cc(C(=O)OC)o1 | 3.43%
29 | O=C1NC(=O)/C(=C\c2ccc(Oc3ccc([N+](=O)[O-])cn3)cc2)S1 | 18.2%
30 | Cc1ccc(S(=O)(=O)N2CCN(c3nc(C(C)C)c4c(c3C#N)CC(C)(C)OC4)CC2)cc1 | 21.1%
31 | CC12CCC(=O)N1C(C(=O)OCC(=O)Nc1cc(S(=O)(=O)N3CCCCC3)ccc1Cl)CS2 (stereo not drawn) | -48.2%
32 | CC(=O)Nc1ccc(S(=O)(=O)N2CCC(c3nc4ccc(C)cc4[nH]3)CC2)cc1 | -34.5%
33 | CCn1c(C)cc(O)cc1=O | 8.88%
34 | Cc1cc(C(=O)CSc2nnnn2C)c(C)n1-c1cccc(F)c1 | -23.8%
35 | NC(=O)c1ccc(NC(=O)c2cc(S(=O)(=O)N3CCCCC3)ccc2N2CCOCC2)cc1 | -13.9%
36 | Cc1cc(C)c(CN2CCC(n3nccc3NC(=O)CCOc3ccccc3)CC2)cc1C | -26.1%
37 | Clc1cccc(CN2CCCCCC2)c1 | 12.3%
38 | CCCCNC(=O)c1onc(CS(=O)(=O)c2ccccn2)c1C(=O)NCCCC | -27.6%
39 | Cc1ccc(S(=O)(=O)N2CCN(C(=O)c3ccc(COc4ccccc4)o3)CC2)cc1 | -0.773%
40 | CCSC1=NCCN1C(=O)C(C)(C)Oc1ccc(Cl)cc1 | 4.55%
41 | O=C(NNC(=O)C1[C@H]2CCCC[C@@H]12)NC1CCCCC1 (stereo partly drawn) | 3.77%
42 | Cc1cccc(CN2CCCN(Cc3ccc(Cl)cc3)S2(=O)=O)c1 | 14%
43 | CC(=O)c1c(C)nc(-c2ccccc2)nc1NC(=O)Cc1ccccc1 | 9.04%
44 | CCCc1nc2ccccc2c(=O)n1-c1c(C)n(C)n(-c2ccccc2)c1=O | 8.6%

Row | SMILES | hERG current change (%, negative = inhibition) at 10uM
45 | CC[C@]1(c2ccccc2C)ON(c2ccccc2C(F)(F)F)C1=O | 17.1%
46 | O=C(O)C(=O)O.O=C(c1ccccc1)N1CCN(Cc2ccccc2C(F)(F)F)CC1 | -19.2%
47 | CCN(CC)CCCNC(=O)c1cc2c(=O)[nH]c3ccc(C)cc3c2s1 | 8.67%
48 | CC1CN(CCCCN2C(=O)c3ccccc3C2=O)CC(C)O1.O=C(O)C(=O)O (stereo not drawn) | 4.66%
49 | CC(C)CC(NC(=O)C1CCC(=O)N1C(=O)OCc1ccccc1)C(=O)NC(Cc1ccccc1)C(N)=O (stereo not drawn) | 19.8%
50 | Cc1nc(SCc2cccc(F)c2)[nH]c(=O)c1C#N | -11.5%
51 | COc1cc2nc(CN3C(=O)c4ccccc4C3=O)oc(=O)c2cc1OC | 17.9%
52 | CCC(C)C(NC(=O)OC(C)(C)C)C(=O)NC(C)C(N)=O (stereo not drawn) (Boc-Ile-Ala-NH2; configuration not given here) | 16.1%
53 | CCOc1ccccc1NC(=O)c1ccc(S(=O)(=O)N2CCCCC2)cc1 | 6.41%
54 | N/C(Cn1nnc(-c2ccccc2)n1)=N\O | -2.1%
55 | COC(=O)c1sccc1NC(=S)NCc1ccc(Cl)cc1 | 9.11%
56 | COc1ccccc1CNC(=O)C1CCN(c2ncnc3c2nc2n3CCCCC2)CC1 | 6.69%
57 | COc1ccc(C2Cc3ccccc3C(=O)O2)cc1 (stereo not drawn) | -11.2%
58 | CCCCNC(=O)[C@]1(C)CCC[C@@]2(C)C3CC[C@@]4(C)C[C@]3(CCC21)CC4=O (stereo partly drawn) | -5.36%
59 | Cc1ccc(C(OC(=O)c2ccco2)C(=O)NC(C)(C)C)cc1 (stereo not drawn) | 10.8%
60 | COc1ccc(N2CC(C(=O)Nc3nc4ccc(OC)cc4s3)CC2=O)cc1 (stereo not drawn) | -58.8%
61 | Cc1ccc(S(=O)(=O)N2CCOCC2)cc1NC(=O)CSc1cccc[n+]1[O-] | -12.6%
62 | Cc1cccc(C)c1NC(=O)c1cccc(COc2cc(Cl)ccc2Cl)c1 | 1.43%
63 | COc1ccc(OCCCC(=O)OC(C)C(=O)Nc2ccc(S(N)(=O)=O)cc2)cc1 (stereo not drawn) | -9.14%
64 | CCOC(=O)Cc1csc(NC(=O)c2ccc(Cl)nc2)n1 | 9.35%
65 | CCC(=O)Nc1ccc(-c2nnc(-c3ccccc3)o2)cc1 | 2.6%
66 | COCCOC(=O)c1c(C)n(C)c2ccc(OC(=O)c3ccccc3F)cc12 | 3.15%

Row | SMILES | hERG current change (%, negative = inhibition) at 10uM
67 | CCN(CC)C(=O)C(=O)N/N=C/c1cccs1 | 14.7%
68 | O=C(NNC(=S)Nc1ccccc1)c1cc(-c2cccnc2)nc2ccccc12 | 26.4%
69 | O=C(N/N=C/c1cc2c(cc1[N+](=O)[O-])OCO2)c1cccnc1 | -1.62%
70 | O=C(Nc1ccnn1C1CCN(C(=O)c2ccccc2C(F)(F)F)CC1)C1CC1 | 29.3%
71 | CC(=O)Oc1ccc2oc(/C=C/N(C)C)c([N+](=O)[O-])c2c1 | 11.9%
72 | Cn1c(N/N=C\c2cccc(O)c2)cc(=O)n(C)c1=O | 1.59%
73 | O=C(O)c1ccc(N2CCOCC2)c(N2C(=O)C3C4C=CC(C4)C3C2=O)c1 (stereo not drawn) | 17.2%
74 | CN(C)CC(=O)Nc1cc(C(F)(F)F)ccc1Cl | 11.2%
75 | CC(=O)Oc1cccc(N2C(=O)CC(Nc3ccc(N4CCOCC4)cc3)C2=O)c1 (stereo not drawn) | -1.67%
76 | COc1cccc(S(=O)(=O)NCC(=O)N2CCCC2)c1 | 19.9%
77 | CSc1ccccc1NC(=O)CN(C)CC(=O)Nc1cccc(Br)c1 | -12.3%
78 | CN(Cc1ccccc1)c1nc2c(c(=O)n(C)c(=O)n2C)n1CCCc1ccccc1 | -20.7%
79 | Cc1cccn2c(=O)c(/C=C3\SC(=S)N(CC(C)C)C3=O)c(NCCCOC(C)C)nc12 | 0.671%
80 | COC(=O)CCNC(=O)Cn1cnc2sc3c(c2c1=O)CCCC3 | 9.21%
81 | CSCCC(NC(=O)c1ccco1)C(=O)NCC(c1ccccc1)N(C)C (stereo not drawn) | -9.02%
82 | Cn1c(Cc2ccccc2)nnc1SCC(=O)Nc1ccc(N2CCOCC2)cc1 | 3%
83 | COc1ccccc1CNC(=O)C(NS(=O)(=O)c1cccc2nsnc12)C(C)C (stereo not drawn) | 0.845%
84 | CC(=O)Nc1ccc(NC(=O)/C=C/c2ccccc2)cc1 | -13.1%
85 | CCOc1ccc2[nH]c(=O)c(CN(CCc3ccccc3)C(=O)c3cnccn3)cc2c1 | -1.06%
86 | Cc1ccc(OCC(=O)Nc2ccc(NC(=O)c3ccco3)cc2)c(C)c1 | 11%
87 | COc1cc(OC)cc(C(=O)NCC2CCCN(Cc3cccc(C(C)=O)c3)C2)c1 (stereo not drawn) | -25.3%
